Results published in PubChem BioAssay AID463173 (ICCB-Longwood Screening Facility, Harvard Medical School, 2010).
Among all 52,000 compounds or so, about 4,300 (8.3%) were called active. Rule as the data show it: active = survival mostly below about 52% (no sharp cut-off); inactive = mostly above about 56%. Some of the results follow.

system: DeltatarO mutant; test: S. aureus survival, RN4220 and DeltatarO strains – OD600, teichoic acid synthesis inhibitors, primary screen (AID 463173); settings: S. aureus RN4220 wild type/DeltatarO growth, OD600, 18 h, active compounds read low, screened at 18.75 µg/mL (by protocol)

SMILES	survival
CCOC(=O)C(C)Sc1nnc(-c2ccc(F)cc2)o1 (centres undefined)	inactive: 86%
CCCOc1ccc(-c2cccc(NS(=O)(=O)c3cc(OC)ccc3OC)c2)nn1	inactive: 99%
O=C(NCc1ccc(Cl)cc1)c1cnc2sc(N3CCCCCC3)nn2c1=O	inactive: 89%
Cc1ccc(S(=O)(=O)c2nc(-c3cccs3)oc2SCC(=O)Nc2cc(C)cc(C)c2)cc1	inactive: 70%
CN(CCc1ccccn1)C(=O)c1nn2c(C(F)(F)F)cc(-c3ccco3)nc2c1Cl	inactive: 50%
COc1ccccc1OCC(=O)N(Cc1cccs1)C1CCS(=O)(=O)C1 (centres undefined)	inactive: 53%
COc1ccccc1CNc1nc(-c2ccco2)nn1S(C)(=O)=O	inactive: 70%
Cc1cccc(Cn2c(=O)n(CCCC(=O)NCc3ccccc3Cl)c(=O)c3ccccc32)c1	inactive: 99%
Cc1ccc(Nc2c3c(nc4nc(-c5cccs5)nn24)CCCC3)cc1F	active: 20%
COc1ccc(N2C(=O)CSC23C(=O)N(Cc2cccc(C(F)(F)F)c2)c2ccccc23)cc1 (centres undefined)	inactive: 67%
Cc1cc(OCCN2CCOCC2)nc(N2CCOCC2)n1	inactive: 90%
CCOc1ccc2oc(=O)cc(CN3CCN(Cc4ccc(C)cc4)CC3)c2c1	inactive: 48%
CCOc1ccc(-n2ccnc2SCC(=O)Nc2cccc3ccccc23)cc1	inactive: 68%
O=C(CSc1nnc(Cn2nnc3ccccc32)o1)N(Cc1ccc(Cl)cc1)c1ccccc1	inactive: 58%
Cc1cccc(CC(=O)N2CC(=O)Nc3ccc(C)cc3C2c2ccc(F)cc2)c1 (centres undefined)	inactive: 50%
COc1ccc(Br)cc1CNC(=O)c1ccc2nc(C(C)C)oc2c1	inactive: 101%
N=c1c(S(=O)(=O)c2ccccc2)cc2c(=O)n3ccccc3nc2n1Cc1cccnc1	inactive: 85%
COc1ccc(-n2cc(-c3ccccc3)nc2SCC(=O)Nc2ccccc2C)cc1	inactive: 94%
Cc1ccc(CNc2nc3ccc(Cl)cc3n3nnnc23)cc1	inactive: 95%
CCOC(=O)N1CCc2c(sc(NCc3cccc(F)c3)c2C(=O)Nc2ccc(OC)cc2)C1	inactive: 113%
COc1cc(NC(=O)CCn2c(=O)oc3ccccc32)cc(OC)c1OC	inactive: 62%
COc1cc(OC)c(NS(=O)(=O)c2c(C(=O)N3CCCCCC3)c(C)n(C)c2C)cc1Cl	inactive: 68%
Cc1cc(-c2ccc(C)c(S(=O)(=O)Nc3ccccn3)c2)on1	inactive: 73%

SMILES	survival
COc1ccc(N(Cc2cccs2)C(=O)COc2cccc(C)c2C)cc1	active: 17%
CSc1ccc(NC(=O)C2CCN(c3ncccn3)CC2)cc1	inactive: 110%
CCN1CCN(c2ncc3c(n2)CCN(CC(C)C)C3)CC1	inactive: 86%
Cc1ccc(S(=O)(=O)CCc2nnc(NC(=O)CCCC(=O)Nc3cc(C)on3)s2)cc1	inactive: 104%
Cc1cc(C)cc(-n2c(SCC(=O)Nc3cccc(F)c3)nc3c([nH]c4ccccc43)c2=O)c1	inactive: 95%
COc1ccc(N2CCN(C(=O)COc3ccccc3C#N)CC2)cc1	inactive: 91%
COc1ccc(OC)c(NC(=O)Cn2c(=O)n(Cc3ccco3)c(=O)c3cc(OC)c(OC)cc32)c1	inactive: 91%
Cc1ccc(C)c(NC(=O)C(Cc2ccccc2)n2cccc2)c1 (centres undefined)	inactive: 107%
CCOC(=O)C1=C(N)Oc2cc(C)oc(=O)c2C1c1ccccc1F (centres undefined)	inactive: 93%
C=CCn1c(SCC(=O)Nc2cc(OC)c(NC(=O)c3ccco3)cc2OC)nnc1-c1ccncc1	inactive: 90%
Cc1ccc(C(=O)Nc2ccc(-c3nc4ccccc4o3)cc2)cc1Cl	inactive: 68%
Brc1ccc(Nc2c3c(nc4nncn24)CCC3)cc1	inactive: 65%
COc1ccccc1CNC(=O)CCCCn1c(=O)c2ccccc2n(CC(=O)Nc2c(C)cc(C)cc2C)c1=O	inactive: 97%
CCOc1ccccc1CNC(=O)CCC(=O)N1CCSc2ccccc21	inactive: 107%
Clc1nc2ccccc2c(N2CCCCC2)c1CNC1CC1	inactive: 96%
COc1ccccc1Cc1nc2ccccc2nc1SCC(=O)Nc1ccc2c(c1)OCO2	inactive: 73%
CCCN(CCC)C(=O)CSc1c2c(nc3ccc(Cl)cc13)CCCC2	active: 38%
Cc1ccc(NC(=O)CN2C(=O)C(c3ccc(C(C)(C)C)cc3)=NC2(C)C)cc1	inactive: 64%
O=[N+]([O-])c1cc(-c2nc(-c3ccccc3)no2)ccc1NCc1cccnc1	active: 47%
CCOC(=O)c1c(-c2ccc(OC)c(OC)c2)csc1NC(=O)c1ccc(C)cc1	inactive: 57%
CCCCN1CCCc2cc(CN(CCCN3CCOCC3)C(=O)Nc3ccc(CC)cc3)ccc21	inactive: 102%
O=C(O)c1cccc(NC(=O)c2cc3cc(Br)cc(Br)c3oc2=O)c1	inactive: 82%
COc1ccc(-c2[nH]nc3oc(=O)cc(C)c23)cc1	inactive: 84%

SMILES	survival
COc1ccc(S(=O)(=O)N(CC(=O)NCCSc2ccccc2)c2ccc(C)cc2)cc1	inactive: 60%
Cc1cc(=O)[nH]c(SCC(=O)NC2CCCCC2)n1	inactive: 84%
CC(=O)c1cccc(NC(=O)Cc2ccc(NC(=O)N3CCCCc4ccccc43)cc2)c1	inactive: 67%
CCCCNc1oc(-c2ccc(COc3ccccc3C)o2)nc1C#N	inactive: 112%
CCOC(=O)c1cc(-c2ccccc2)n(CCC(=O)NCCc2cccc(C)c2)c1C	inactive: 58%
COc1ccc(S(=O)(=O)NCCc2sc3nc(-c4ccc(C)cc4)nn3c2C)cc1C	inactive: 86%
Cc1ccc(NC(=O)C2CCC(CNS(=O)(=O)c3ccc4c(c3)CCCC(=O)N4)CC2)cc1F (centres undefined)	inactive: 87%
COCCNc1nc2c(c(=O)n(Cc3cccc(Cl)c3)c(=O)n2C)n1C	inactive: 54%
COc1ccc2c(c1)c1c(c(=O)n(Cc3ccccc3)c(=O)n1Cc1ccccc1Cl)n2C	inactive: 83%
COc1ccc(OCC(=O)Nc2c(C(=O)N3CCN(c4ccccc4)CC3)oc3ccccc23)cc1	inactive: 84%
CCc1ccc(NC(=O)C2=C(C)C(=O)OC23CCCCC3)cc1	inactive: 77%
CCOc1ccccc1C(=O)NC1(C(F)(F)F)C(=O)Nc2c1c(=O)[nH]c(=O)n2-c1ccccc1 (centres undefined)	inactive: 78%
Cc1cc(C)c(Cn2c3ccccc3c3cnn(CC(=O)NCCC4=CCCCC4)c(=O)c32)c(C)c1	inactive: 72%
COc1cccc(CNC(=O)c2ccc3nc(-c4ccccc4)c(-c4ccccc4)nc3c2)c1OC	inactive: 74%
Cc1ccc(S(=O)(=O)c2cn(Cc3ccccc3)c3cc(N4CCCC4)c(F)cc3c2=O)cc1	inactive: 71%
Cc1ccccc1OCC(=O)Nc1ccc(C(=O)OCc2cc(=O)n3ccsc3n2)cc1	inactive: 117%
Cc1ccccc1NC(=O)c1nc(S(C)(=O)=O)ncc1N(Cc1ccco1)Cc1sccc1C	active: 43%
CCN1CC=C2C(C#N)=C(N)C(C#N)(C#N)C(c3ccc(OC)c4ccccc34)C2C1 (centres undefined)	inactive: 108%
C1Cc2nn3c(c2C1)n1nc2c(c1n1nc4c(c31)CCC4)CCC2	inactive: 73%
CCN(C(=O)CCc1nc(-c2ccc(C)cc2)no1)c1cccc(Cl)c1	active: -5%
COc1cc2c(cc1OC)C(COc1ccc3c(C)cc(=O)oc3c1)N(C(=O)Cc1ccccc1)CC2 (centres undefined)	inactive: 70%
COC(=O)c1cc2sccc2n1CC(=O)Nc1ccc(C)cc1C	inactive: 102%
O=C(CCN1CCN(CCO)CC1)Nc1ccc(Br)cc1	inactive: 67%

SMILES	survival
O=C(CCC1CCCC1)N1CCN(C2CCCCC2)CC1	inactive: 70%
COc1ccc(C)cc1NC(=O)c1cc2ccccn2n1	inactive: 78%
CCc1ccc(NC(=O)C2CCCN(S(=O)(=O)c3cccc4nsnc34)C2)cc1 (centres undefined)	inactive: 86%
COc1ccc(Nc2nnc(-c3ccc(C)c(S(=O)(=O)NCc4nc5ccccc5[nH]4)c3)c3ccccc23)cc1	inactive: 126%
CN(C)CC[n+]1ccc(C(=O)c2ccccc2)cc1	inactive: 70%
Cc1sc2nc(SCC(=O)NCCCN3CCOCC3)[nH]c(=O)c2c1C	inactive: 95%
CCC(C)Sc1oc(-c2ccco2)nc1S(=O)(=O)c1ccc(Cl)cc1 (centres undefined)	active: 49%
Clc1ccc(-c2csc(-c3nc(-c4ccc(Br)s4)cs3)n2)cc1	inactive: 90%
O=C(NCc1ccc(Cl)cc1)c1ccc2c(c1)NC(=O)C(CS(=O)(=O)Cc1ccc(F)cc1Cl)N2 (centres undefined)	inactive: 71%
Cc1ccc(NCc2nnc(SCC(=O)N3CCOCC3)o2)c(C)c1	inactive: 74%
CCOc1ccccc1C(=O)Nc1ccc(-n2nncc2-c2ccccc2)cc1	inactive: 125%
COC(=O)C1=C(C)OC(N)=C(C#N)C1c1cc2ccc(C)cc2[nH]c1=O (centres undefined)	inactive: 75%
CCOC(=O)c1ccc(NC2(c3ccccc3)C(=O)c3ccccc3C2=O)cc1	inactive: 73%
CCOC(=O)c1ccc(NC(=O)c2sc3ccccc3c2Cl)cc1	inactive: 67%
COc1ccccc1C(=O)Nc1nnc(S(=O)(=O)N2CCN(c3ccc(F)cc3)CC2)s1	inactive: 50%
Cc1ccc(-c2nnc3ccccc3c2C(=O)Nc2ccc(C)c(F)c2)cc1	inactive: 80%
COc1cccc(NC(=O)CCc2nnc3n(Cc4ccccc4Cl)c(=O)c4ccccc4n23)c1	inactive: 93%
Cc1ccc(NC(=O)c2c(C)nc3sc(C(=O)Nc4ccc(F)cc4)c(N)c3c2-c2ccc(Cl)cc2)c(C)c1	inactive: 56%
Cc1ccc(Nc2c(-c3ccc(N4CCOCC4)cc3)nc3cccc(C)n23)cc1	inactive: 103%
O=C1CC(c2nnc(Cc3c(F)cccc3Cl)o2)CN1c1ccccc1 (centres undefined)	inactive: 129%
